# Laboratory results from the supplement of paper PMC3334620.
# Over roughly 33,000 sequences, “E-score (-0.5 to 0.5)” has its median near -0.016; the highest 2% begin near 0.31. This is one part of the list.
# Target: Cst6 (UniProt P40535)
# Test: PBM E-score (8-mer binding enrichment) (E-score (-0.5 to 0.5)); higher = stronger / more preferred TF binding; most listed sequences are background and not binding sites
# Conditions: protein concentration: 200 nM; construct: GST-DNA-binding domain
# In short: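 For each ungapped eight-base word taken together with its reverse complement, the Universal PBM Analysis Suite assigned an E-score. Binding data came from GST-tagged yeast transcription factors, applied at about 100-200 nM, on universal all-10-mer Agilent arrays made double-stranded by primer extension. Fluorescent anti-GST marked bound protein, and scans were normalised with masliner.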
row,Sequence,PBM E-score
1,CTAGGTGA,-0.126
2,AACCATGG,-0.128
3,AGCCACGG,-0.178
4,ATGGTAAT,0.182
5,AGATCGTA,-0.23
6,CGTACCAG,-0.0409
7,AGCCGTCA,0.201
8,TTGGACAA,0.0139
9,ATGTACAT,0.216
10,ATCTTTGG,-0.0128
11,GATCCTAA,-0.161
12,CCAGAGGG,-0.221
13,CTCAACAA,0.231
14,ATTCGAGG,-0.108
15,CTTGGTAA,-0.0484
16,CGGTTGGC,-0.0665
17,GGCAGAAC,-0.0718
18,GAATCGTC,0.0373
19,ATATTACA,0.248
20,AATATAAA,0.331
21,AGTCTAGC,-0.349
22,GACATCCC,-0.0212
23,AGGAACGA,-0.1
24,CCGACTGC,-0.22
25,ACTCAGCT,-0.08

row,Sequence,PBM E-score
1,ATCTGCAA,0.0182
2,ACTCTCGC,-0.204
3,ACTGCGGA,-0.126
4,ACCGCGCT,-0.0955
5,GATCGGGC,-0.226
6,ACTTTTAA,0.155
7,CCACGAGC,-0.264
8,AGTTTCCC,-0.22
9,CGCGAAGA,-0.097
10,AGATATGG,0.0318
11,AAAGCCAA,0.089
12,CCTGTAAA,-0.183
13,CCCTGAAA,0.0354
14,AGAGAGAT,0.0939
15,CCGCTTCA,-0.149
16,ATGGGTTA,0.0761
17,GGCCCGAA,-0.15
18,AGACCCAC,-0.103
19,ATTTTAGA,0.0483
20,GGTCCAAA,-0.0637
21,CAGACTTC,-0.284
22,GCAGACAA,-0.0336
23,AGCACGCC,-0.0736
24,AGGAGGTA,-0.187
25,CTGTGATA,0.0843

row,Sequence,PBM E-score
1,ATCCGAAT,0.145
2,ATAGACTG,-0.0127
3,CGAAACTC,-0.137
4,CCGGAACG,-0.15
5,AAGGATCT,-0.151
6,AGCAGGAA,-0.15
7,GCAAGAGA,-0.13
8,GCTCGTAC,-0.142
9,GGCGGTTA,-0.156
10,ACCGATTC,-0.16
11,GAATCATC,0.118
12,CATCTGAA,0.037
13,AGTCAGGC,-0.0425
14,CGTCGTCA,0.258
15,TCGAACCA,-0.0349
16,ACGCGCGC,0.175
17,AAACCCCA,-0.158
18,CTATCAGA,-0.0869
19,CTGTGGTC,-0.215
20,AGCATTAA,0.083
21,ACGACCAG,0.0245
22,TGTATTAA,0.237
23,ACCTCTAA,-0.0311
24,AGGCTGGG,-0.259
25,CGATATTC,-0.0716

row,Sequence,PBM E-score
1,AATACATG,0.0527
2,AGATATAC,0.053
3,AATGGAGG,-0.164
4,ACAGGAGG,-0.31
5,GCGACGGA,-0.224
6,ATAGAGCC,0.101
7,AAGGACAG,-0.107
8,GTTAGGTA,0.137
9,ATATCGTA,0.172
10,CTGCGAAC,-0.0611
11,GTCTTCCA,-0.228
12,ACATAATG,0.266
13,ATAATTAC,0.349
14,ACGATAAT,0.24
15,ATCCGCAG,0.0287
16,CGCTATAG,-0.101
17,GCACGTAA,0.232
18,ACAACTAC,-0.0522
19,GTAGTAAA,0.0555
20,GTCTTCAC,-0.124
21,GGGGCCTA,-0.383
22,CTATCAAG,-0.0952
23,ACCGGCTA,-0.144
24,GCTTGACC,-0.262
25,GGAAGCGA,0.0849

row,Sequence,PBM E-score
1,AAGGATAA,0.0603
2,AAAGGAGA,-0.156
3,AGAAACGC,-0.0132
4,ATGTCCGG,-0.0972
5,AAAGACTC,-0.172
6,ATATTAGA,0.253
7,GTGTTAAA,0.0585
8,CCATGCCG,0.152
9,GGCAGGTA,-0.232
10,CCAAGGTA,-0.253
11,CGAGTGAA,0.0464
12,GAAATGTA,0.11
13,CGTCTGCA,-0.0743
14,CGCTCAGC,-0.0498
15,CAGATACG,0.0888
16,AAACGCCT,0.0465
17,AGATATGA,0.176
18,CCACGTCA,0.472
19,GATCGTGA,0.0378
20,AGATGTTA,-0.00774
21,TGAATTCA,0.276
22,AAAAAGTT,0.14
23,GGACATCA,0.188
24,AGCAAATC,0.0424
25,GGAGAGGA,-0.417

row,Sequence,PBM E-score
1,AGGGTCAC,-0.263
2,CCAATCCG,-0.0831
3,GAGGGTTA,-0.139
4,TAAATGTA,0.148
5,CCCCGCAC,-0.105
6,AATGTAAC,0.0559
7,AAATCTCA,0.00253
8,TGACCGCA,0.271
9,CAGAATAC,-0.0294
10,CTCGAAGA,-0.0456
11,ATCTAGAC,-0.0539
12,GTCTGAGA,-0.0731
13,GACTTCCA,-0.273
14,CATCTCAA,0.168
15,CGCCCATA,-0.19
16,TAGTCAGA,-0.0527
17,GCCGTGTA,0.195
18,ATTGATAC,0.154
19,CACATAAA,0.206
20,GGTGTGAC,0.00955
21,CAACACTC,-0.00612
22,CATTCTCG,0.00146
23,CCATGGGC,-0.288
24,GCCGACCC,-0.303
25,ACTGTTGC,0.0739

row,Sequence,PBM E-score
1,GAGTCAAA,-0.106
2,AGCTAAGA,-0.0868
3,ACGTCATC,0.497
4,CCTACCTA,-0.213
5,AAAGCCGA,-0.204
6,CAGAGCCC,-0.177
7,CCGTGGGA,-0.0731
8,CATGATCC,-0.064
9,GCGCCGAA,0.132
10,ACCCAGCC,-0.362
11,GGCGGTCA,-0.171
12,TAGTTAAA,0.254
13,GAGGGTCC,-0.376
14,AACTCATG,0.148
15,AATTGCAG,0.0976
16,ACGGCACG,0.348
17,CGTATGTA,0.219
18,TACTCACA,0.123
19,CGAGCGAA,0.0641
20,CGTCGTAG,0.0343
21,TTGCCCAA,-0.161
22,GTCGAGAC,0.0529
23,CCTTGACC,-0.19
24,GGCGAGAA,0.0353
25,AGTCCGTG,-0.33

row,Sequence,PBM E-score
1,CTGAACTA,-0.134
2,AAACAGCA,0.0579
3,AACAAAGA,0.11
4,CTGGAGTA,-0.0677
5,CTGTGCGA,-0.0249
6,AAAGCGCG,-0.0309
7,CTAGACCC,-0.175
8,ATTTCCGA,0.0253
9,TGTTTCAA,0.246
10,GCAATATA,0.029
11,AAGTCTGC,-0.226
12,AAGCACAC,-0.12
13,ATCCCGGC,-0.108
14,CTATCGGA,-0.0998
15,CAGGCTGG,-0.201
16,CTAATCCC,0.0666
17,CGATCTAG,-0.172
18,ACTCCGAT,-0.197
19,ATGGGCTC,-0.167
20,AGACCTTG,-0.142
21,AAACCTCC,-0.255
22,AGTTCTGC,7e-05
23,ACTAATAA,0.234
24,CGCGTACG,0.269
25,AGACTTCG,-0.196

row,Sequence,PBM E-score
1,ACGCCTAA,0.0448
2,ACCCCCAA,-0.26
3,CGTGAGTC,-0.186
4,GCTACGGA,-0.163
5,CAACACGC,-0.2
6,CGCCCATC,-0.245
7,CCAATAAC,0.135
8,CTTACTGC,0.166
9,ACCGCGAA,-0.0784
10,GCGACGTA,0.219
11,CATACCCC,-0.136
12,GTTATCAA,0.0407
13,ACCGGCTG,-0.212
14,CAAGCTTC,-0.0873
15,ACGGAACA,-0.0248
16,CGACACGC,0.0217
17,ATCGATCG,0.197
18,ATGATGGA,0.192
19,AATAGCTC,-0.0576
